# From the supplement of paper PMC8728848
# This is one part of the list.
# B1: Cohesin-marm-DC-ASGPR-CRD (protein)
# chain: LDITSHHHHHHDDLDAVRIKVDTVNAKPGDTVRIPVRFSGIPSKGIANCDFVYSYDPNVLEIIEIEPGDIIVDPNPDKSFDTAVYPDRKIIVFLFAEDSGTGAYAITKDGVFATIVAKVKEGAPNGLSVIKFVEVGGFANNDLVEQKTQFFDGGVNVGDTTEPATPTTPVTTPTTTDDLDAASCPINWVEHQGSCYWFSRSGKTWPEAERYCQLENTHLVVINSREEQNFVQAHLGSAYTWMGLSDPEGVWKWVDGTDYSSGFQNWKPGQPDDWQGHGLGGGEDCAHFHPDGRWNDDVCQRSYHWVCEAGLTQASQDSH
# Legend:
# Assay in all cases: glycan array binding signal (z-score within array); higher = stronger binding
# Conditions in all cases: glycan notation: IUPAC condensed, linker removed
# Gal(b1-2)Gal = target: Gal(b1-2)Gal
# How it was run: (§1)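 Arrays were curated from the Consortium for Functional Glycomics database, 3228 in total, and kept only where the protein sequence was available. Binding is expressed as a within-array Z-score. This score was averaged across arrays of the same protein sequence at different concentrations or buffers and across linkers, and negative values can be read as non-binding.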
# Gal(b1-3)Gal = target: Gal(b1-3)Gal
# How it was run: as §1
# Gal(b1-3)Gal(b1-4)GlcNAc = target: Gal(b1-3)Gal(b1-4)GlcNAc
# How it was run: as §1
# Gal(b1-3)GalNAc = target: Gal(b1-3)GalNAc
# How it was run: as §1
# [1] = target: Gal(b1-3)GalNAc(a1-3)[Fuc(a1-2)]Gal(b1-4)Glc
# How it was run: as §1
# [2] = target: Gal(b1-3)GalNAc(a1-3)[Fuc(a1-2)]Gal(b1-4)GlcNAc
# How it was run: as §1
# Gal(b1-3)GalNAc(b1-3)Gal = target: Gal(b1-3)GalNAc(b1-3)Gal
# How it was run: as §1
# [3] = target: Gal(b1-3)GalNAc(b1-3)Gal(a1-4)Gal(b1-4)Glc
# How it was run: as §1
# [4] = target: Gal(b1-3)GalNAc(b1-4)Gal(b1-4)Glc
# How it was run: as §1
# [5] = target: Gal(b1-3)GalNAc(b1-4)[Neu5Ac(a2-3)]Gal(b1-4)Glc
# How it was run: as §1
# Gal(b1-3)GlcNAc = target: Gal(b1-3)GlcNAc
# How it was run: as §1
# [6] = target: Gal(b1-3)GlcNAc(a1-3)Gal(b1-4)GlcNAc
# How it was run: as §1
# [7] = target: Gal(b1-3)GlcNAc(a1-6)Gal(b1-4)GlcNAc
# How it was run: as §1
# Gal(b1-3)GlcNAc(b1-2)Man = target: Gal(b1-3)GlcNAc(b1-2)Man
# How it was run: as §1
# [8] = target: Gal(b1-3)GlcNAc(b1-2)Man(a1-3)[Gal(b1-3)GlcNAc(b1-2)Man(a1-6)]Man(b1-4)GlcNAc(b1-4)GlcNAc
# How it was run: as §1
# [9] = target: Gal(b1-3)GlcNAc(b1-2)Man(a1-3)[Gal(b1-3)GlcNAc(b1-2)Man(a1-6)]Man(b1-4)GlcNAc(b1-4)[Fuc(a1-6)]GlcNAc
# How it was run: as §1
# [10] = target: Gal(b1-3)GlcNAc(b1-2)Man(a1-3)[GlcNAc(b1-4)][Gal(b1-3)GlcNAc(b1-2)Man(a1-6)]Man(b1-4)GlcNAc(b1-4)GlcNAc
# How it was run: as §1
# [11] = target: Gal(b1-3)GlcNAc(b1-2)[Gal(b1-3)GlcNAc(b1-6)]Man(a1-6)[Gal(b1-3)GlcNAc(b1-2)Man(a1-3)]Man(b1-4)GlcNAc(b1-4)GlcNAc
# How it was run: as §1
# [12] = target: Gal(b1-3)GlcNAc(b1-3)Gal(b1-3)GlcNAc
# How it was run: as §1
# [13] = target: Gal(b1-3)GlcNAc(b1-3)Gal(b1-4)Glc
# How it was run: as §1
# [14] = target: Gal(b1-3)GlcNAc(b1-3)Gal(b1-4)GlcNAc
# How it was run: as §1
# [15] = target: Gal(b1-3)GlcNAc(b1-3)Gal(b1-4)GlcNAc(b1-2)Man(a1-3)[Gal(b1-3)GlcNAc(b1-3)Gal(b1-4)GlcNAc(b1-2)Man(a1-6)]Man(b1-4)GlcNAc(b1-4)GlcNAc
# How it was run: as §1
# [16] = target: Gal(b1-3)GlcNAc(b1-3)Gal(b1-4)GlcNAc(b1-2)[Gal(b1-3)GlcNAc(b1-3)Gal(b1-4)GlcNAc(b1-6)]Man(a1-6)[Gal(b1-3)GlcNAc(b1-3)Gal(b1-4)GlcNAc(b1-2)Man(a1-3)]Man(b1-4)GlcNAc(b1-4)[Fuc(a1-6)]GlcNAc
# How it was run: as §1
# [17] = target: Gal(b1-3)GlcNAc(b1-3)Gal(b1-4)GlcNAc(b1-3)Gal(b1-4)GlcNAc(b1-2)[Gal(b1-3)GlcNAc(b1-3)Gal(b1-4)GlcNAc(b1-3)Gal(b1-4)GlcNAc(b1-6)]Man(a1-6)[Gal(b1-3)GlcNAc(b1-3)Gal(b1-4)GlcNAc(b1-3)Gal(b1-4)GlcNAc(b1-2)Man(a1-3)]Man(b1-4)GlcNAc(b1-4)[Fuc(a1-6)]GlcNAc
# How it was run: as §1
# [18] = target: Gal(b1-3)GlcNAc(b1-3)Gal(b1-4)GlcNAc(b1-6)[Gal(b1-3)GlcNAc(b1-3)]Gal(b1-4)Glc
# How it was run: as §1
# [19] = target: Gal(b1-3)GlcNAc(b1-3)Gal(b1-4)[Fuc(a1-3)]GlcNAc
# How it was run: as §1
# [20] = target: Gal(b1-3)GlcNAc(b1-3)Gal(b1-4)[Fuc(a1-3)]GlcNAc(b1-6)[Gal(b1-3)GlcNAc(b1-3)]Gal(b1-4)Glc
# How it was run: as §1
# [21] = target: Gal(b1-3)GlcNAc(b1-3)GalNAc
# How it was run: as §1
# [22] = target: Gal(b1-3)GlcNAc(b1-6)Gal(b1-4)GlcNAc
# How it was run: as §1
# [23] = target: Gal(b1-3)GlcNAc(b1-6)GalNAc
# How it was run: as §1
# [24] = target: Gal(b1-3)GlcNAc(b1-6)[Gal(b1-3)]GalNAc
# How it was run: as §1
# Gal(b1-3)GlcNAc6S = target: Gal(b1-3)GlcNAc6S
# How it was run: as §1
# [25] = target: Gal(b1-3)[Fuc(a1-4)]GlcNAc
# How it was run: as §1
# [26] = target: Gal(b1-3)[Fuc(a1-4)]GlcNAc(b1-2)Man
# How it was run: as §1
# [27] = target: Gal(b1-3)[Fuc(a1-4)]GlcNAc(b1-2)Man(a1-3)[Gal(b1-3)[Fuc(a1-4)]GlcNAc(b1-2)Man(a1-6)]Man(b1-4)GlcNAc(b1-4)[Fuc(a1-6)]GlcNAc
# How it was run: as §1
# [28] = target: Gal(b1-3)[Fuc(a1-4)]GlcNAc(b1-3)Gal(b1-3)[Fuc(a1-4)]GlcNAc
# How it was run: as §1
# [29] = target: Gal(b1-3)[Fuc(a1-4)]GlcNAc(b1-3)Gal(b1-4)[Fuc(a1-3)]GlcNAc
# How it was run: as §1
binder,measurement,setting,value
B1,glycan array binding signal (z-score),Gal(b1-2)Gal,-0.074
same,glycan array binding signal (z-score),Gal(b1-3)Gal,-0.431
same,glycan array binding signal (z-score),Gal(b1-3)Gal(b1-4)GlcNAc,-0.399
same,glycan array binding signal (z-score),Gal(b1-3)GalNAc,-0.382
same,glycan array binding signal (z-score),[1],-0.446
same,glycan array binding signal (z-score),[2],-0.447
same,glycan array binding signal (z-score),Gal(b1-3)GalNAc(b1-3)Gal,-0.343
same,glycan array binding signal (z-score),[3],2.55
same,glycan array binding signal (z-score),[4],-0.247
same,glycan array binding signal (z-score),[5],2.41
same,glycan array binding signal (z-score),Gal(b1-3)GlcNAc,-0.433
same,glycan array binding signal (z-score),[6],-0.444
same,glycan array binding signal (z-score),[7],-0.426
same,glycan array binding signal (z-score),Gal(b1-3)GlcNAc(b1-2)Man,-0.429
same,glycan array binding signal (z-score),[8],-0.407
same,glycan array binding signal (z-score),[9],-0.368
same,glycan array binding signal (z-score),[10],-0.414
same,glycan array binding signal (z-score),[11],-0.384
same,glycan array binding signal (z-score),[12],-0.38
same,glycan array binding signal (z-score),[13],-0.437
same,glycan array binding signal (z-score),[14],-0.45
same,glycan array binding signal (z-score),[15],-0.317
same,glycan array binding signal (z-score),[16],0.528
same,glycan array binding signal (z-score),[17],1.25
same,glycan array binding signal (z-score),[18],-0.437
same,glycan array binding signal (z-score),[19],-0.412
same,glycan array binding signal (z-score),[20],-0.454
same,glycan array binding signal (z-score),[21],-0.361
same,glycan array binding signal (z-score),[22],-0.437
same,glycan array binding signal (z-score),[23],2.41
same,glycan array binding signal (z-score),[24],-0.041
same,glycan array binding signal (z-score),Gal(b1-3)GlcNAc6S,-0.447
same,glycan array binding signal (z-score),[25],-0.386
same,glycan array binding signal (z-score),[26],-0.337
same,glycan array binding signal (z-score),[27],0.166
same,glycan array binding signal (z-score),[28],-0.413
same,glycan array binding signal (z-score),[29],-0.454
